# Source: the supplement of paper PMC10338343
# ± gives the standard deviation. Over roughly 3,000 sequences, “pre-steady-state target cleavage rate” has its median near 0.0079; the highest 2% begin near 0.2. Only a part is listed here, and it is no random draw.
# Test system: MILI (PIWIL2) piRISC loaded with piRNA #2 (26 nt)
# Test: pre-steady-state target cleavage rate (min^-1); MIWI and MILI are mouse PIWI proteins and EfPiwi is from a freshwater sponge; tags in brackets are library labels; higher = faster piRNA-guided slicing of the target
# Settings: guide: piRNA #2 5'p-UUAGGUAACCCAGUAGAUCCAGAGGA; auxiliary factor: 500 nM mouse GTSF1
# Summary of the method: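 In this Cleave-'n-Seq assay, uncleaved targets were sequenced and normalised to depth and to weakly complementary targets. They came from a transcribed, DNA-blocked target RNA library […] mixed with 1 nM active affinity-purified piRISC carrying one synthetic guide, with or without 500 nM GTSF1 partner protein, in HEPES–potassium acetate buffer at 33 °C for 0–8 or 0–960 min. After three trials were pooled and k3 was capped at 0.0001 min^-1, the pre-steady-state cleavage rate was obtained from a burst-and-steady-state fit.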
# 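Also: 1 nM active piRISC with 0.1 nM target library at 33 °C single turnover.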
row,Sequence,pre-steady-state target cleavage rate
1,CUUAUCCUCUGGAUCUACUGGGUUACGAUA,0.0863 ± 0.018
2,CUUAAGGAGAUGAUCUACUGGGUUACCUAA,0.00468 ± 0.0027
3,CUUAAGGUCUGGAUCUAGUGGGUUACCUAA,0.0754 ± 0.011
4,CUUAUCCUCUGGAUCUACAGGGUAACCUAA,0.0485 ± 0.0099
5,CUUAAGGUCUGGAACUACUGGGUUACCUUA,0.0302 ± 0.012
6,CUUAAGGUCUGUGAUCUACUGGGUUACCUAA,0.0319 ± 0.012
7,CUUAACCUUGGAUCUACUGGGUUACCUAA,0.134 ± 0.041
8,CUUAAGGUCUGGAUCUACUCGGUUUCCUAA,< 0.0001
9,CUUAUCCUCUGGAUCUACUCCCUUACCUAA,< 0.0001
10,CUUAAGGAGUGGAUCUACCGGGUUACCUAA,0.0106 ± 0.0044
11,CUUAUCCUCUGGAUCUACUGGGUCACCUAA,0.0729 ± 0.02
12,CUUAACCUCUGGAUCAACUGGGUUAGCUAA,0.0452 ± 0.015
13,CUUAUCCUCUGGAUCUUCUGGGUUUCCUAA,0.258 ± 0.088
14,CUUAAGGUCUGGAUCUACUGGGUAUCCUAA,0.00775 ± 0.0042
15,CUUAUCGUCUGGAUCUACUGGGAUACCUAA,0.0257 ± 0.01
16,CUUAUCCUGCUGGAUCUACUGGGUUACCUAA,0.0776 ± 0.018
17,CUUAAGCUCUGGAUCUACUGGGAUUACCUAA,0.0255 ± 0.0088
18,CUUAACCUCUGGAUCAACUGGGUUACCUAA,0.0725 ± 0.016
19,CUUAAGGAGUGGAUCUACUGGGUUACCAUAA,0.0164 ± 0.0065
20,CUUAAGGUCUGGUUCUACUGGGUUACGUAA,0.0238 ± 0.011
21,CUUAAGGACUGGAUCUACUGGGUUACACUAA,0.00728 ± 0.0071
22,CUUAUCCUCUGGAUCUUGUGGGUUACCUAA,0.0259 ± 0.0071
23,CUUAAGGUUCUGGAUCUACUGGGUUACCUAA,0.0561 ± 0.014
24,CUUAUCCUCUGGAUCUACGGGUUACCUAA,0.0179 ± 0.006

row,Sequence,pre-steady-state target cleavage rate
1,CUUAAGGUCUGGAUCUACUGUGUUACCUAA,0.0217 ± 0.0075
2,CUUAUCCUCUGGAUUACUGGGUUACCUAA,0.0465 ± 0.012
3,CUUAAGGAGUGGAUCUCCUGGGUUACCUAA,0.0167 ± 0.0078
4,CUUAACCUCUAGAUCUACUGGGUUACCUAA,0.164 ± 0.024
5,CUUAACCUCUGGAUCUACUGGUUUACCUAA,0.0131 ± 0.0052
6,CUUAUCCUCUGCAUCUACUGGGUAACCUAA,0.0553 ± 0.017
7,CUUAAGCUCUGGAUGUACUGGGUUACCAAA,0.0554 ± 0.014
8,CUUAUCCUCUGGAUGUACUGGGUUAGCUAA,0.0428 ± 0.011
9,CUUAAGGAGAGGAUCUACUGGGUUAGCCUAA,0.00695 ± 0.0046
10,CUUAUCCUCUGGAACUACUGGGUUACCUUA,0.266 ± 0.073
11,CUUAACCUCUCGAUCUACUGCGUUACCUAA,0.0274 ± 0.0066
12,CUUAUCCUCUGGAUCUACUGGGUAUGCUAA,0.092 ± 0.023
13,CUUAAGGAGUGGUAUCUACUGGGUUACCUAA,0.0475 ± 0.021
14,CUUAAGCUCUGGUUCUACUGCGUUACCUAA,0.0161 ± 0.0062
15,CUUAAGGUCUGGAUCUACUGGGUUAGCUUA,0.00941 ± 0.0047
16,CUUAAGGACAGGAUCUACAGGGUUACCUAA,0.0375 ± 0.014
17,CUUAAGGAGUGGAUUCUACUGGGUUACCUAA,0.0144 ± 0.0062
18,CUUAAGGUCUCGAUCUACUGGGUUUCCUAA,0.0375 ± 0.013
19,CUUAAGCUCUGGUUCUACUGGGUUACCUAA,0.131 ± 0.027
20,CUUAAGCUCUGGAUGAACUGGGUUACCUAA,0.0213 ± 0.0083
21,CUUAACCUCAGGAUCAACUGGGUUACCUAA,0.0494 ± 0.012
22,CUUAAGGACUGGAUCUACUGGGUUACCUUA,0.024 ± 0.013
23,CUUAAGCACUGGAUCAACUGGGUUACCUAA,0.053 ± 0.011
24,CUUAAGCUCUGGAUCAACUGGGUAACCUAA,0.0152 ± 0.0052

row,Sequence,pre-steady-state target cleavage rate
1,CUUAACCUCUGGAACUACUGGGUUAGCUAA,0.105 ± 0.044
2,CUUAAGGUCUCGAUCUACUGGGUAACCUAA,0.0272 ± 0.011
3,CUUAUCCUCUGGAUCUACUGGGUGUACCUAA,0.0546 ± 0.011
4,CUUAAGGACUCGAUCUAGUGGGUUACCUAA,0.00593 ± 0.003
5,CUUAUCCUCUGGAUCUACUGGGUUACGUUA,0.103 ± 0.02
6,CUUAUCCUCAGGAUGUACUGGGUUACCUAA,0.0858 ± 0.016
7,CUUAAGCUCUGGGAUCUACUGGGUUACCUAA,0.12 ± 0.024
8,CUUAACCUCUGCAUGUACUGGGUUACCUAA,0.117 ± 0.016
9,CUUAAGGUCUGGAACUAGUGGGUUACCUAA,0.0373 ± 0.011
10,CUUAAGGUCUGGUUGUACUGGGUUACCUAA,0.0557 ± 0.011
11,CUUAAGGUCCUGGAUCUACUGGGUUACCUAA,0.0452 ± 0.016
12,CUUAAGGUCUGGAUCUACUGGGAAACCUAA,0.0107 ± 0.0055
13,CUUAUCCUCUGGAACUACUGCGUUACCUAA,0.0191 ± 0.007
14,CUUAAGGACUUGAUCUACUGGGUUACCUAA,0.0142 ± 0.0092
15,CUUAAGCUCUGGAUUUACUGGGUUACCUAA,0.0629 ± 0.011
16,CUUAAGGAGUGGUUCUACUGGGUUAGCUAA,0.00426 ± 0.0038
17,CUUAAGCUCUGGAUCUACUGGGUUGCCUAA,0.0758 ± 0.017
18,CUUAACCUCUGGAUCUACUGGGAAACCUAA,0.0897 ± 0.034
19,CUUAACCUCUGGAUCUACUGGGUAAGCUAA,0.178 ± 0.038
20,CUUAAGGAGUCGGAUCUACUGGGUUACCUAA,0.0106 ± 0.0083
21,CUUAAGGUCUGGAUCUACUGGGUUACGAUA,0.0497 ± 0.016
22,CUUAUCCUCAGGAUCUACUGGGAUACCUAA,0.0181 ± 0.0074
23,CUUAAGGUCUGGAUCUACUGGGUUACAUAA,0.0431 ± 0.014
24,CUUAAGGAGUGGGAUCUACUGGGUUACCUAA,0.00515 ± 0.0032
